In all, about 48,000 compounds went through this assay and about 550 (1.1%) were called active. Roughly 4% stayed inconclusive and do not appear here. Cut-off read from the data, not from the text of the source: active = potency below about 15 µM; inconclusive = mostly about 16 µM to 33 µM; inactive = weaker than that. This is one part of the list. Where only a bound is given, the exact number is not on record here.
Potency is the fitted concentration of half-maximal effect.

In the assay the target is Lysosomal acid glucosylceramidase (Homo sapiens) (UniProt P04062). Kind of assay: Glucocerebrosidase.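 Note: the screen sought inhibitors.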 To be noted: purified enzyme, resorufin glucoside fluorescence (screen aimed at inhibitors), 20 min. In a few lines: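 Normal human glucocerebrosidase (0.2 nM final) was assayed with resorufin β-D-glucopyranoside (30 uM final) in 50mM citric acid/KH2PO4, 10mM sodium taurocholate, 0.01% tween-20, pH 5.9. Compounds were titrated; fluorescence (Ex 548, Em 600) read after 20 min at RT.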
Chain of UniProt P04062 (P04062 whole entry, looked up): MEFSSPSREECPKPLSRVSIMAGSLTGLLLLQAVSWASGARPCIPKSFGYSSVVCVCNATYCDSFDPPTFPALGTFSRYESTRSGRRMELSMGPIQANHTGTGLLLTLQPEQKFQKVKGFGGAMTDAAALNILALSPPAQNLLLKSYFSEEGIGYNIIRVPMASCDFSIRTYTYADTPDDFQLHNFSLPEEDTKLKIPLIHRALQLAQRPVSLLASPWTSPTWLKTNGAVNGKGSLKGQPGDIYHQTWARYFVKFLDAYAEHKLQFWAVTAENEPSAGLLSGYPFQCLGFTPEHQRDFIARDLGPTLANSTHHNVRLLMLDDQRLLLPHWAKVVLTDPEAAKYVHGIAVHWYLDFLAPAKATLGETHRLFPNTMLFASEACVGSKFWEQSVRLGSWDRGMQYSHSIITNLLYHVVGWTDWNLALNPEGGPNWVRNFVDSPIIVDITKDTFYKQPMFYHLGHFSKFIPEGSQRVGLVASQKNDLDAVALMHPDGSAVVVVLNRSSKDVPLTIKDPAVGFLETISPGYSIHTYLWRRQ
Consider `CS(=O)(=O)NCCC1=CCCCC1`, for which the Potency is inactive: > 76.9 µM.

As to `O=C(Nc1ccc(N2CCN(C(=O)c3ccco3)CC2)cc1)c1ccc2c(c1)OCO2`, the Potency was inactive: > 76.9 µM.

Take `CCN1CCN(C(=O)C2=C(C(=O)O)CCCC2)CC1`: the Potency was inactive: > 76.9 µM.

Consider `Cn1c(CCN2CCOCC2)nc2cc(NC(=O)COc3ccc(Cl)cc3)ccc21`, for which the Potency is inactive: > 76.9 µM.

Regarding `O=C1c2ccccc2S(=O)(=O)N1CC(O)Cn1ccc2ccccc21` (configuration not stated), the Potency is inactive: > 76.9 µM.

`Cc1cc(OCC(=O)O)c2cccc(C)c2n1`: the Potency was inactive: > 76.9 µM.

Take `CCC(=O)N1CCc2cc(S(=O)(=O)CCC(=O)Nc3ccc(F)c(F)c3)ccc21`: the Potency is inactive: > 76.9 µM.

Regarding `Cc1ccc(N2CC(C(N)=O)CC2=O)cc1C` (configuration not stated), the Potency was inactive: > 76.9 µM.

`COC(=O)c1sc2cnccc2c1N`: the Potency was inactive: > 76.9 µM.

Turning to `Cc1noc(C)c1COc1ccc(C(=O)OC(C)C(=O)Nc2ccc(N3CCOCC3)cc2)cc1` (configuration not stated), the Potency was inactive: > 76.9 µM.

`COc1ccc(OC)c(C2=NOC(C(=O)NCC3CCCO3)C2)c1` (configuration not stated): the Potency is inactive: > 76.9 µM.

With `FC(F)(F)c1cccc(NCc2cn3cccnc3n2)c1`, the Potency was inactive: > 76.9 µM.

For `O=C(Nc1nnc(-c2ccccc2)o1)c1ccc(Cl)cc1`, the Potency was inactive: > 76.9 µM.

For `N#Cc1c(NC(=O)CSc2ncnc3c2cnn3-c2ccccc2Cl)sc2c1CCCC2`, the Potency was inactive: > 76.9 µM.

Take `CCCCN(CC)C(=O)Cc1c(C(=O)O)[nH]c2ccc(Cl)cc12`: the Potency was inactive: > 76.9 µM.

For `CCn1c(COc2ccc(OC)cc2)nnc1SCC(=O)Nc1cc(OC)ccc1OC`, the Potency was inactive: > 76.9 µM.

`COC(=O)[C@H](C)NC(=O)Nc1cccc(C(F)(F)F)c1`: the Potency is inactive: > 76.9 µM.

Take `CN1CC(=O)N(CC(=O)Nc2ccc(Cl)c(C(F)(F)F)c2)C1=O`: the Potency was inactive: > 76.9 µM.

Regarding `CCOC(=O)C1CCCN(CC(=O)/C=C2/N(C)c3ccccc3C2(C)C)C1` (configuration not stated), the Potency was inactive: > 76.9 µM.

`Cc1cc(C)cc(OCc2nnc(SCC(=O)N3CCN(c4ccccc4)CC3)o2)c1`: the Potency was inactive: > 76.9 µM.

With `CCOC(=O)C1=C(Cn2cnc3ccccc32)NC(=O)NC1c1cc(C)ccc1C` (configuration not stated), the Potency is inactive: > 76.9 µM.

For `CCC(CC)C(=O)NCCc1cc2ccc(OC)cc2[nH]c1=O`, the Potency was inactive: > 76.9 µM.

With `COc1cccc(N2CCN(C3CCCC(C)C3)CC2)c1` (configuration not stated), the Potency is inactive: > 76.9 µM.

Consider `O=C(CSc1nnc(Cc2ccccc2)o1)NCc1ccco1`, for which the Potency was inactive: > 76.9 µM.

Turning to `Clc1ccc(-c2noc(CN3CCN(c4ccccc4)CC3)n2)cc1`, the Potency is inactive: > 76.9 µM.

Take `CC(=O)Nc1ccc(S(=O)(=O)N2CCC(NC(=O)c3ccco3)CC2)cc1`: the Potency was inactive: > 76.9 µM.

On to `Cn1c(SCC(=O)N2CCCc3ccccc32)nnc1-c1ccccc1`, for which the Potency is inactive: > 76.9 µM.

As for `COc1cc(NC(=O)c2c(F)c(F)c(F)c(F)c2F)c(OC)cc1Cl`, the Potency is inactive: > 76.9 µM.

With `CCOC(=O)CC12CN3CN(C1)CC(CC(=O)OCC)(C3)C2=O`, the Potency was inactive: > 76.9 µM.

For `C=CCSc1nc2c(c(=N)n1CC=C)C1CCCC1S2` (configuration not stated), the Potency was inactive: > 76.9 µM.

In the case of `COc1ccc(Br)cc1CNC(=O)CCN1C(=O)COc2ccccc21`, the Potency was inactive: > 76.9 µM.

`CCOC(=O)C1=C(C)N=C2SCCC(=O)N2C1c1ccc(C(=O)OC)cc1` (configuration not stated): the Potency is inactive: > 76.9 µM.

`O=C(NCCc1ccncc1)c1ccccc1F`: the Potency was inactive: > 76.9 µM.

On to `Cn1c(SCc2c(Cl)cccc2Cl)nnc1-c1cccs1`, for which the Potency entry was “inactive”.

Regarding `CCOc1ccc(S(=O)(=O)N(CC(N)=O)c2ccc(C)cc2)cc1`, the Potency was inactive: > 76.9 µM.

`COc1cc(C(N)=O)ccc1OCc1ccccc1`: the Potency was inactive: > 76.9 µM.

For the compound `Cc1occc1-c1nnc(SCC(=O)N2CCCc3ccccc32)n1Cc1ccco1`, the Potency was inactive: > 76.9 µM.

For the compound `Cc1cc(C)cc(NC(=O)CSc2nnc(-c3ccccc3)n2N)c1`, the Potency is inactive: > 76.9 µM.

Consider `O=C(Nc1ccc2c(c1)OCO2)c1cc2ncc(Br)cn2n1`, for which the Potency was inactive: > 76.9 µM.

For `CC12C=CC3(CN(Cc4ccccc4)C(=O)C3C1C(=O)NCc1ccco1)O2` (configuration not stated), the Potency is inactive: > 76.9 µM.

For the compound `CC1=Nn2c(nnc2-c2ccccc2)SC1`, the Potency is inactive: > 76.9 µM.

In the case of `c1ccc(Cc2nnc3sc(-c4cccs4)nn23)cc1`, the Potency was inactive: > 76.9 µM.

Consider `N#Cc1nc(-c2ccc(OCc3ccccc3)cc2)oc1N1CCC(C(N)=O)CC1`, for which the Potency was inactive: > 76.9 µM.

On to `O=C(CCCC(=O)N(CC(=O)NC1CCCCC1)Cc1ccco1)Nc1ccccn1`, for which the Potency was inactive: > 76.9 µM.

For the compound `O=C(NCCc1ccccc1)C1CCCN(C(=O)NC2CCCCC2)C1` (configuration not stated), the Potency is inactive: > 76.9 µM.

For `CCOc1ccc(N2C(=O)CC(N3CCOCC3)C2=O)cc1` (configuration not stated), the Potency was inactive: > 76.9 µM.

`COc1ccc(S(=O)(=O)N[C@H](C(=O)O)C(C)C)cc1`: the Potency is inactive: > 76.9 µM.

`Cc1ccc(OCCN2C(=O)OC(C)(C)C2(C)O)cc1` (configuration not stated): the Potency is inactive: > 76.9 µM.

For the compound `O=C(CCNS(=O)(=O)c1cccc2nonc12)NC1CCCc2ccccc21` (configuration not stated), the Potency is inactive: > 76.9 µM.

For `Cc1oc(-c2ccccc2F)nc1CN1CCC(C(=O)NC2CC2)CC1`, the Potency is inactive: > 76.9 µM.

As for `CN(C)S(=O)(=O)N1CCc2ccccc21`, the Potency is inactive: > 76.9 µM.

For `COCCN1Cc2cccc(C(=O)NCc3ccc4c(c3)OCO4)c2C1=O`, the Potency is inactive: > 76.9 µM.

In the case of `Cn1c(CCNC(=O)c2cccs2)nnc1SCC(=O)Nc1nc(-c2ccccc2)cs1`, the Potency was inactive: > 76.9 µM.

For the compound `CCN(CC)S(=O)(=O)c1ccc(NC(=O)c2ccccn2)cc1`, the Potency was inactive: > 76.9 µM.

As for `Cc1cccc(-c2nnc(SCC#N)n2-c2ccccc2)c1`, the Potency was inactive: > 76.9 µM.

Consider `C=Cn1c(N2CCOCC2)nc2c1c(=O)[nH]c(=O)n2C`, for which the Potency is inactive: > 76.9 µM.

For `COc1ccc(-c2cn3c(C)c(C(=O)Nc4cccc(C)n4)sc3n2)cc1`, the Potency is inactive: > 76.9 µM.

For `CCOC(=O)CCNC(=O)Nc1ccc2nc(C)n(Cc3ccc(Cl)cc3)c(=O)c2c1`, the Potency is inactive: > 15.4 µM.

Consider `CN(C)CCNC(=O)COc1cccc(Cl)c1`, for which the Potency is inactive: > 76.9 µM.

With `CCOC(=O)/C(N=O)=C(\O)C1CCN(C(=O)OCC)CC1`, the Potency was inactive: > 76.9 µM.

As for `Cc1csc(/C(=N\O)c2csc(C)n2)n1`, the Potency is inactive: > 76.9 µM.

`O=C(Nc1nc2n(n1)C(c1ccccc1)CC(c1ccc(Cl)cc1)N2)c1ccco1` (configuration not stated): the Potency is inactive: > 76.9 µM.

On to `COc1ccccc1C1SCCN1S(=O)(=O)c1cccc(C(F)(F)F)c1` (configuration not stated), for which the Potency result was “inactive”.

With `N#Cc1c(-c2ccc3c(c2)OCO3)csc1N`, the Potency is inactive: > 76.9 µM.

Take `CCOc1ccc(-n2c(SCC(=O)Nc3ccc(OC)cc3)nc3c(c2=O)SCC3)cc1`: the Potency was inactive: > 76.9 µM.

`COc1ccc(N2C(=O)CC(NCc3ccncc3)C2=O)cc1` (configuration not stated): the Potency is inactive: > 76.9 µM.

On to `CC(=O)c1cccc(NC(=O)N2CCc3ccccc3C2)c1`, for which the Potency is inactive: > 76.9 µM.

Take `Cc1ccnc(NC(=O)C2CCN(S(=O)(=O)c3cccc4nsnc34)CC2)c1`: the Potency is inactive: > 76.9 µM.

Turning to `CCc1c(C)c2ccc(OCC(=O)N(C)C)c(C)c2oc1=O`, the Potency is inactive: > 76.9 µM.

`O=C(O)CNCC1COc2ccccc2O1` (configuration not stated): the Potency is inactive: > 76.9 µM.

With `CCCCN(C)C(=O)Cn1cnc2sc(C)cc2c1=O`, the Potency was inactive: > 76.9 µM.

For `O=C(CSc1nnc(-c2cccnc2)n1Cc1ccco1)c1ccc2ccccc2c1`, the Potency was inactive: > 76.9 µM.

As for `CCCCOC(=O)c1ccc(NC(=O)c2ccoc2C)cc1`, the Potency was inactive: > 76.9 µM.

As to `CCCN1CCN(CCCNC(=O)Cn2nc(-c3ccc(C)cc3)ccc2=O)CC1`, the Potency is inactive: > 76.9 µM.

For the compound `CC(=O)NCC(=O)N(c1ccccc1)C1(C(=O)NC2CCCCC2)CCCCC1`, the Potency was inactive: > 76.9 µM.

As for `CCOc1ccc(OCC(=O)Nc2ccc(S(=O)(=O)Nc3cc(C)nc(C)n3)cc2)cc1`, the Potency was inactive: > 76.9 µM.

With `CCOC(=O)CNC(=O)CSc1nnc(-c2cccc(C)c2)n1-c1ccc(OC)cc1`, the Potency was inactive: > 76.9 µM.

With `COc1ccc(C2=NOC(C(=O)NCc3ccc(F)cc3)C2)cc1` (configuration not stated), the Potency is inactive: > 76.9 µM.

Consider `COc1ccccc1N1CCN(S(=O)(=O)Cc2ccccc2Cl)CC1`, for which the Potency was inactive: > 76.9 µM.

As for `CCCC1CCC(c2nc(-c3cccnc3)no2)CC1` (configuration not stated), the Potency is inactive: > 76.9 µM.

With `Nn1c(SCC(=O)Nc2ccc(F)cc2)nnc1-c1cccnc1`, the Potency was inactive: > 76.9 µM.

With `CCCc1ccc(OCc2ccc(C(=O)OC)o2)c(OC)c1`, the Potency was inactive: > 76.9 µM.

Consider `CCCc1nc2ccccc2c(=O)n1/N=C/c1ccc(O)cc1O`, for which the Potency was inactive: > 76.9 µM.

For the compound `COc1cc(C2NC(=O)NC(O)(C(F)(F)F)C2C(=O)c2cccs2)ccc1O` (configuration not stated), the Potency was inactive: > 76.9 µM.

For the compound `CCOC(=O)N1CCN(C(=O)CSc2ccccc2)CC1`, the Potency was inactive: > 76.9 µM.

Consider `Cc1cccc(N2CCN(C(=O)Cn3ccc4ccccc4c3=O)CC2)c1C`, for which the Potency was inactive: > 76.9 µM.

For the compound `CC(=O)C1=C(C)Nc2ncnn2C1c1ccc(Cl)cc1` (configuration not stated), the Potency is inactive: > 76.9 µM.

For the compound `COc1ccc(CN2C(=O)[C@@H]3C(c4ccc(F)cc4)=NO[C@@H]3C2=O)cc1`, the Potency was inactive: > 76.9 µM.

As for `CCOC(=O)c1[nH]cnc1C(=O)O`, the Potency is inactive: > 76.9 µM.

As for `O=C(CN(C(=O)CCC(=O)Nc1nccs1)c1ccc2c(c1)OCCO2)NCc1ccco1`, the Potency is inactive: > 76.9 µM.

Consider `Cc1ccc(C)n1NC(=O)c1ccccc1Cl`, for which the Potency is inactive: > 76.9 µM.

In the case of `O=C(C1=COCCO1)N1CCN(S(=O)(=O)c2cccc(Cl)c2Cl)CC1`, the Potency was inactive: > 76.9 µM.

(Values after PubChem BioAssay AID360 (National Center for Advancing Translational Sciences (NCATS), 2006).)
